# The other results are listed elsewhere or left out. Sequences were assembled here from the parent chain. Inactive controls read about 0.05.
# B1: TEV protease; numbered along this chain (parent)
# chain: MGESLFKGPRDYNPISSSICHLTNESDGHTTSLYGIGFGPFIITNKHLFRRNNGTLVVQSLHGVFKVKDTTTLQQHLVDGRDMIIIRMPKDFPPFPQKLKFREPQREERICLVTTNFQTKSMSSMVSDTSCTFPSGDGIFWKHWIQTKDGQCGSPLVSTRDGFIVGIHSASNFTNTNNYFTSVPKNFMELLTNQEAQQWVSGWRLNADSVLWGGHKVFMVKPEEPFQPVKEATQL
# Variants of: B1
# Assay: raw area under fraction-flipped curve 0-4 h after induction (AUC4h, not background-subtracted), DNA-recorder readout of cleavage of the substrate (dimensionless); higher = more cleavage of the substrate by the protease variant
# Conditions: temperature: 34 °C; time window: 0-4 h after rhamnose induction
# Description: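 In vivo DNA recorder in E. coli TOP10(DE3) ΔrhaA at 34 °C. Each TEVp single-site mutant (parent TEVp 0) is paired with a single-site variant of the 7-mer TEVs (canonical ENLYFQ|S). The substrate sits between flexible linkers in a Bxb1-sfGFP-TEVs-SsrA fusion, so cleavage stabilises Bxb1 and speeds flipping of a recombination array, read by NGS. The value is the raw area under the fraction-flipped curve over 0-4 h after rhamnose induction (AUC4h), with ≥20 reads per time point. It is not background-subtracted; inactive controls average about 0.047.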
# 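Further: Bxb1 expression induced with 0.2% (w/v) L-rhamnose at OD600 near 0.5, cultures sampled hourly, flipped fraction per protease–substrate barcode pair counted by paired-end Illumina sequencing.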
variant,measurement,value
W144I,area with substrate ENLYDQS,0.059
same,area with substrate ENLYEQS,0.0587
same,area with substrate ENLYGQS,0.0477
same,area with substrate ENLYHQS,0.0677
same,area with substrate ENLYIQS,0.0765
same,area with substrate ENLYPQS,0.0738
same,area with substrate ENLYRQS,0.0541
same,area with substrate ENLYSQS,0.0878
same,area with substrate ENLYVQS,0.0938
same,area with substrate ENLYYQS,0.0704
S60T,area with substrate ENLYDQS,0.0512
same,area with substrate ENLYEQS,0.0702
same,area with substrate ENLYHQS,0.0679
same,area with substrate ENLYKQS,0.0488
same,area with substrate ENLYMQS,0.0892
same,area with substrate ENLYNQS,0.0727
same,area with substrate ENLYPQS,0.0662
same,area with substrate ENLYQQS,0.0608
same,area with substrate ENLYTQS,0.0844
same,area with substrate ENLYVQS,0.129
I110E,area with substrate ENLYDQS,0.0546
same,area with substrate ENLYHQS,0.0695
same,area with substrate ENLYKQS,0.0528
same,area with substrate ENLYPQS,0.0459
same,area with substrate ENLYQQS,0.0553
same,area with substrate ENLYRQS,0.0599
same,area with substrate ENLYSQS,0.0526
same,area with substrate ENLYTQS,0.0601
I167D,area with substrate ENLYDQS,0.0458
same,area with substrate ENLYEQS,0.0552
same,area with substrate ENLYGQS,0.0529
same,area with substrate ENLYHQS,0.0511
same,area with substrate ENLYKQS,0.0502
same,area with substrate ENLYMQS,0.0646
same,area with substrate ENLYNQS,0.0582
same,area with substrate ENLYPQS,0.0643
same,area with substrate ENLYQQS,0.0372
same,area with substrate ENLYRQS,0.0511
same,area with substrate ENLYSQS,0.0241
same,area with substrate ENLYTQS,0.0505
same,area with substrate ENLYVQS,0.0403
P184K,area with substrate ENLYDQS,0.0579
same,area with substrate ENLYEQS,0.0571
same,area with substrate ENLYGQS,0.0636
same,area with substrate ENLYIQS,0.0904
same,area with substrate ENLYKQS,0.0746
same,area with substrate ENLYMQS,0.0674
same,area with substrate ENLYNQS,0.0643
same,area with substrate ENLYRQS,0.0608
same,area with substrate ENLYSQS,0.0563
same,area with substrate ENLYVQS,0.0645
P184R,area with substrate ENLYDQS,0.0529
same,area with substrate ENLYEQS,0.0661
same,area with substrate ENLYIQS,0.0714
same,area with substrate ENLYKQS,0.0459
same,area with substrate ENLYPQS,0.0346
same,area with substrate ENLYRQS,0.0462
same,area with substrate ENLYTQS,0.063
P96R,area with substrate ENLYDQS,0.0735
same,area with substrate ENLYEQS,0.0759
same,area with substrate ENLYIQS,0.132
same,area with substrate ENLYKQS,0.0681
same,area with substrate ENLYLQS,0.127
same,area with substrate ENLYNQS,0.059
same,area with substrate ENLYWQS,0.0846
R102G,area with substrate ENLYDQS,0.0534
same,area with substrate ENLYEQS,0.0435
same,area with substrate ENLYGQS,0.0594
same,area with substrate ENLYHQS,0.0447
same,area with substrate ENLYIQS,0.0677
same,area with substrate ENLYKQS,0.0526
same,area with substrate ENLYLQS,0.0645
same,area with substrate ENLYMQS,0.0631
same,area with substrate ENLYNQS,0.0507
same,area with substrate ENLYPQS,0.041
same,area with substrate ENLYQQS,0.0522
same,area with substrate ENLYRQS,0.039
same,area with substrate ENLYSQS,0.053
same,area with substrate ENLYWQS,0.07
G214C,area with substrate ENLYDQS,0.0676
same,area with substrate ENLYGQS,0.0466
same,area with substrate ENLYLQS,0.0663
same,area with substrate ENLYWQS,0.105
G202K,area with substrate ENLYDQS,0.07
same,area with substrate ENLYEQS,0.0543
same,area with substrate ENLYIQS,0.0579
same,area with substrate ENLYMQS,0.0632
same,area with substrate ENLYWQS,0.0695
V210Y,area with substrate ENLYDQS,0.0674
same,area with substrate ENLYEQS,0.0658
same,area with substrate ENLYGQS,0.0734
same,area with substrate ENLYHQS,0.0761
same,area with substrate ENLYIQS,0.11
same,area with substrate ENLYKQS,0.0623
same,area with substrate ENLYLQS,0.0688
same,area with substrate ENLYMQS,0.0793
same,area with substrate ENLYNQS,0.0615
same,area with substrate ENLYPQS,0.0781
same,area with substrate ENLYQQS,0.0637
same,area with substrate ENLYRQS,0.0859
same,area with substrate ENLYSQS,0.0763
same,area with substrate ENLYVQS,0.0953
same,area with substrate ENLYYQS,0.0448
S124K,area with substrate ENLYDQS,0.0624
same,area with substrate ENLYEQS,0.073
same,area with substrate ENLYGQS,0.0624
same,area with substrate ENLYHQS,0.0565
same,area with substrate ENLYKQS,0.0685
same,area with substrate ENLYMQS,0.0981
same,area with substrate ENLYNQS,0.0834
same,area with substrate ENLYPQS,0.0707
same,area with substrate ENLYQQS,0.0529
same,area with substrate ENLYRQS,0.0602
same,area with substrate ENLYSQS,0.0725
same,area with substrate ENLYTQS,0.0726
same,area with substrate ENLYVQS,0.135
same,area with substrate ENLYWQS,0.0806
G153R,area with substrate ENLYDQS,0.0415
same,area with substrate ENLYHQS,0.058
K142Y,area with substrate ENLYDQS,0.0635
same,area with substrate ENLYEQS,0.0709
same,area with substrate ENLYGQS,0.0602
same,area with substrate ENLYHQS,0.0552
same,area with substrate ENLYIQS,0.0901
same,area with substrate ENLYKQS,0.0499
same,area with substrate ENLYMQS,0.0844
same,area with substrate ENLYNQS,0.0647
same,area with substrate ENLYPQS,0.084
same,area with substrate ENLYRQS,0.061
same,area with substrate ENLYYQS,0.0622
E3N,area with substrate ENLYDQS,0.0726
same,area with substrate ENLYGQS,0.0626
same,area with substrate ENLYMQS,0.0754
same,area with substrate ENLYNQS,0.0623
same,area with substrate ENLYSQS,0.0878
E223Q,area with substrate ENLYDQS,0.0592
same,area with substrate ENLYEQS,0.0684
same,area with substrate ENLYMQS,0.0868
same,area with substrate ENLYQQS,0.0511
same,area with substrate ENLYSQS,0.0773
same,area with substrate ENLYVQS,0.0932
same,area with substrate ENLYWQS,0.0966
same,area with substrate ENLYYQS,0.0875
R160M,area with substrate ENLYDQS,0.0579
same,area with substrate ENLYGQS,0.0577
same,area with substrate ENLYPQS,0.0715
same,area with substrate ENLYVQS,0.108
R160G,area with substrate ENLYDQS,0.0676
same,area with substrate ENLYEQS,0.0764
same,area with substrate ENLYGQS,0.0727
same,area with substrate ENLYHQS,0.0755
same,area with substrate ENLYIQS,0.117
same,area with substrate ENLYKQS,0.0655
same,area with substrate ENLYMQS,0.0779
same,area with substrate ENLYNQS,0.0667
same,area with substrate ENLYPQS,0.0592
same,area with substrate ENLYQQS,0.055
same,area with substrate ENLYRQS,0.0552
same,area with substrate ENLYSQS,0.0647
same,area with substrate ENLYTQS,0.101
same,area with substrate ENLYWQS,0.0783

# Reference: the supplement of paper PMC12217912
